# Screen size: about 410,000 compounds; about 6,400 (1.6%) were called active. The shares of active, inactive and inconclusive entries below differ from those in the screen. Calls follow the shape of the dose curve; as a rule, active = well fitted inhibition curve with a large enough effect; inconclusive = small, poorly fitted or top-dose-only effect; inactive = no such curve, though single readings can be large or run the other way. No potency is given beside an inconclusive call; the fits are too rough.
# Molecular target: Glucagon-like peptide 1 receptor (Homo sapiens) (UniProt P43220)
# Assay: qHTS of GLP-1 Receptor Inverse Agonists (Inhibition Mode); also: nearly all actives have a fitted effect of over 55% in size
# Details: HEK293 GLP-1R CRE-luciferase, luminescence, 24 h, GLP-1R form is constitutively active; series mostly up to 38.3 µM
# Outline: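 Inverse agonism was detected as reduced cAMP-driven luciferase luminescence after 24 h compound treatment. The cells were HEK293 clones expressing constitutively active human GLP-1R with the reporter. Reporter-only and GPR119 cell lines served as counterscreen controls.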
# Potency is read from the fitted curve at half-maximal effect; tags tell the direction and shape of the fitted curve.
# UniProt P43220, sequence (P43220 whole entry, looked up): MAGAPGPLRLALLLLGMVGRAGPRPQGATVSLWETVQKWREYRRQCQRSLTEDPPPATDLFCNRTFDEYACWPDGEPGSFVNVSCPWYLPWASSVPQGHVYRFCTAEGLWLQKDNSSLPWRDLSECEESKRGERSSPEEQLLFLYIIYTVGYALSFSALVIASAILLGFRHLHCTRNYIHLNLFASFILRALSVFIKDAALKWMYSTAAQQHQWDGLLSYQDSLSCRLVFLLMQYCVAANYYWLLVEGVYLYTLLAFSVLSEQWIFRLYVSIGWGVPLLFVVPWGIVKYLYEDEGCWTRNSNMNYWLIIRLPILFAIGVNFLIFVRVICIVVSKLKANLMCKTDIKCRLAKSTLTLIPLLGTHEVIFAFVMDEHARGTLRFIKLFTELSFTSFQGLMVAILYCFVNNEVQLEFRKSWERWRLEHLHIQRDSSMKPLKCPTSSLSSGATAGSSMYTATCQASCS
row,SMILES,Potency
1,Cc1ccc(S(=O)(=O)NCCC2=CCCCC2)cc1,"inconclusive [inhibitor, single point]"
2,CCOc1ccc(OCc2ccc(C(=O)N3CCCC(C)C3)cc2)cc1 (stereo not given),"inconclusive [inhibitor, full curve, poor fit]"
3,COc1cccc(-c2cn3c(n2)sc2cc(C(=O)NC4CCCCCC4)ccc23)c1,inactive
4,COc1ccc(OC)c(S(=O)(=O)NC(=O)C2(C)CCN2C(=O)Cc2ccccc2)c1 (stereo not given),inactive
5,Clc1ccc(CSc2nnc(NC3=NCCCCC3)s2)cc1,"inconclusive [inhibitor, partial curve, poor fit]"
6,CCOC(=O)C1=C(C)NC2=C(C(=O)C(C(=O)OCC)C(c3ccco3)C2)C1c1ccccn1 (stereo not given),inactive
7,COc1ccc(C(=O)Oc2cccc(/C=N/NC(N)=S)c2)cc1,"inconclusive [inhibitor, single point]"
8,COc1ccc(OC)c2nc3c(C(=O)NCCN(C)C)cccc3nc12,"inconclusive [inhibitor, partial curve, poor fit]"
9,C=CC[C@@H](CC(=O)N(CCO)Cc1ccccc1)C(=O)N[C@@H](COC(=O)[C@@H](CC=C)Cc1ccc(F)cc1)Cc1c[nH]c2ccccc12,"inconclusive [inhibitor, partial curve, poor fit]"
10,COc1cc(OC)c(NC(=O)c2nnn(Cc3ccc(C)cc3)c2N)cc1Cl,inactive
11,O=C(NC(=S)Nc1ccc(N2CCOCC2)c(Cl)c1)c1cccs1,"inconclusive [inhibitor, single point]"
12,CCc1ccc(NC(=O)c2cc(S(=O)(=O)NC3CCCC3)ccc2F)cc1,"inconclusive [inhibitor, partial curve, poor fit]"
13,NC1(C(=O)O)CSSC1,"inconclusive [inhibitor, full curve, poor fit]"
14,Cc1ccc(NC(=O)c2c(NC(=O)c3ccco3)sc3c2CCC(C(C)(C)C)C3)c(C)c1 (stereo not given),inactive
15,CC1=CC(C)(C)N2C(=O)C3(C(C#N)=C(N)Oc4cc(O)ccc43)c3c(C)c(C)cc1c32 (stereo not given),"inconclusive [inhibitor, partial curve, poor fit]"
16,CCOc1ccc(/C=N/NC(=O)c2cc(-c3ccco3)nc3ccccc23)cc1,"inconclusive [inhibitor, single point]"
17,Cc1ccc(CN2CCN(C(=O)c3ccco3)CC2)cc1,inactive
18,O=C1NC2(CCC3(CC2)OCCO3)NN1c1ccc(Cl)cc1,"inconclusive [inhibitor, full curve, poor fit]"
19,Clc1cccc(N2CCN(Cc3ccc(Br)o3)CC2)c1,"inconclusive [inhibitor, partial curve, poor fit]"
20,O=C(Cc1ccccc1[N+](=O)[O-])NCCC1=CCCCC1,"inconclusive [inhibitor, single point]"
21,Cc1cc(OCCCn2cnc3ccccc3c2=O)ccc1[N+](=O)[O-],inactive
22,COC(=O)c1cc(NC(=O)c2oc(=O)c3ccccc3c2-c2ccccc2)cc(C(=O)OC)c1,inactive

row,SMILES,Potency
1,Nc1nnnn1/N=C/c1ccc(N2CCCCC2)c([N+](=O)[O-])c1,inactive
2,CCc1ccc(OCC(=O)NC2CCCCC2)c(Br)c1,"inconclusive [inhibitor, partial curve, poor fit]"
3,Cc1ccc(NC(=O)CN2C(=O)CSc3ccc(S(=O)(=O)N4CCCC4)cc32)cc1F,"inconclusive [inhibitor, partial curve, poor fit]"
4,O=C(CN1C(=O)S/C(=C\c2ccccc2F)C1=O)Nc1ccccc1O,"inconclusive [inhibitor, single point]"
5,Cc1ccc(S(=O)(=O)n2cc(-c3ccccc3)c(N)n2)cc1,"inconclusive [inhibitor, single point]"
6,O=C(NC1CCCC1)C(c1ccccc1)N(Cc1ccc(F)cc1)C(=O)c1csnn1 (stereo not given),"inconclusive [inhibitor, partial curve]"
7,CC(C)CCOc1ccc(C(=O)NCC(c2cccs2)N2CCOCC2)cc1 (stereo not given),"inconclusive [inhibitor, partial curve, poor fit]"
8,COc1ccc(CCNC(=O)CN(c2ccccc2OC)S(=O)(=O)c2ccc(C)cc2)cc1,"inconclusive [inhibitor, partial curve, poor fit]"
9,O=C(Nc1sc2c(c1C(=O)Nc1ccccc1Cl)CCCC2)c1ccccc1F,inactive
10,O=C(Nc1ccccc1Oc1ccccc1)c1ccccc1F,"inconclusive [inhibitor, single point]"
11,CCOc1ccc2oc(C(=O)N3CCN(Cc4ccccc4)CC3)c(C)c2c1,"inconclusive [inhibitor, single point]"
12,COc1ccc(OCc2nc3c4cc(OC)c(OC)cc4nc(=S)n3[nH]2)cc1,inactive
13,Cc1[nH]c2c(ccc3ccccc32)c1C1C(CCN)C1(C)C (stereo not given),"inconclusive [inhibitor, single point]"
14,COc1ccccc1C(=O)NC(=S)Nc1cccc2cc(O)ccc12,"inconclusive [inhibitor, single point]"
15,COc1ccc(OCC(O)Cn2c(=N)n(Cc3ccccc3)c3ccccc32)cc1 (stereo not given),"inconclusive [inhibitor, full curve, poor fit]"
16,CCOC(=O)c1c(C)[nH]c(C)c1S(=O)(=O)NCCCc1ccco1,"inconclusive [inhibitor, single point]"
17,COc1ccccc1CNS(=O)(=O)c1ccc2[nH]c3c(c2c1)CCCCC3,"inconclusive [inhibitor, single point]"
18,COc1cccc(C2CC(c3ccc(Cl)cc3Cl)n3nc(N)nc3N2)c1 (stereo not given),"inconclusive [inhibitor, single point]"
19,Cc1snc(SCc2cccc(Cl)c2)c1C#N,"inconclusive [inhibitor, single point]"
20,C=CCN(Cc1ccc(OC)c(OC)c1)C(=O)N1CCOCC1,inactive
21,CSc1ccc(CNC(=O)CCn2ccc3cc(S(=O)(=O)N4CCC(C)CC4)ccc32)cc1,"inconclusive [inhibitor, single point]"
22,O=C(NC(=S)NCc1ccc(Cl)cc1)c1ccco1,"inconclusive [inhibitor, full curve, poor fit]"

row,SMILES,Potency
1,Cc1ccc(SCCNC(=O)c2cccc([N+](=O)[O-])c2C)cc1,"inconclusive [inhibitor, single point]"
2,COCCn1c(SCC(=O)Nc2cc(Cl)ccc2OC)nc2c([nH]c3ccccc32)c1=O,inactive
3,CC(C)C(c1nnnn1CC1CCCO1)N1CCN(Cc2ccc3c(c2)OCO3)CC1 (stereo not given),inactive
4,COC(=O)C(Cc1ccccc1)NC(=O)CCNC(=O)c1ccc(Br)cc1 (stereo not given),"inconclusive [inhibitor, single point]"
5,Clc1ccc(-c2nc3ccccn3c2CN2CCCCC2)cc1,active: 10 µM
6,Clc1ccc2nc(CSc3nnc4ccccn34)cn2c1,"inconclusive [inhibitor, single point]"
7,COc1ccc(CCNC(=O)CCSc2nc(-c3ccco3)cc(C(F)(F)F)n2)cc1OC,"inconclusive [inhibitor, partial curve, poor fit]"
8,CC(=O)c1c(C)[nH]c(C(=O)Nc2ccc3c(c2)OCCO3)c1C,"inconclusive [inhibitor, single point]"
9,CC(C)n1nc(C(=O)Nc2nc3ccccc3[nH]2)c2ccccc2c1=O,"inconclusive [inhibitor, single point]"
10,Cc1cc2c(cc1S(=O)(=O)NCc1ccccc1)NC(=O)CO2,"inconclusive [inhibitor, single point]"
11,Cc1ccc(NC(=O)CSCC(=O)NCCc2ccccc2)cc1,"inconclusive [inhibitor, single point]"
12,Cc1csc2nc(COC(=O)c3ccccc3NC(=O)c3cccc(Br)c3)cc(=O)n12,"inconclusive [inhibitor, partial curve, poor fit]"
13,Cc1ccc(C2=NS(=O)(=O)N(C)C(C(=O)Nc3ccc4c(c3)OCO4)=C2)cc1,"inconclusive [inhibitor, single point]"
14,O=S(=O)(c1ccc(Br)s1)N1CCN(c2cccc(C(F)(F)F)c2)CC1,"inconclusive [inhibitor, single point]"
15,CCN(Cc1cc2ccccc2[nH]c1=O)S(=O)(=O)c1ccccc1,"inconclusive [inhibitor, single point]"
16,CC(C)CC(=O)NC(c1cccs1)c1ccc2cccnc2c1O (stereo not given),"inconclusive [inhibitor, partial curve, poor fit]"
17,O=C(CCCn1c2ccccc2c(=O)c2ccccc21)Nc1cccc(Cl)c1,active: 6.31 µM
18,CN1OC[C@@H]2CN(Cc3cc(Cl)cc(Cl)c3)[C@H](c3cccc(Oc4ccccc4)c3)C[C@@H]21,"inconclusive [inhibitor, single point]"
19,CCOc1ccccc1NC(=O)/C(C#N)=C/c1c(C)nn(-c2ccccc2)c1Cl,"inconclusive [inhibitor, single point]"
20,C=CCNc1nc(C)c(CNc2c(C)cc(C)cc2C)nc1C#N,"inconclusive [inhibitor, single point]"
21,COc1ccc(OC)c(S(=O)(=O)N2C(C)CCCC2C)c1 (stereo not given),"inconclusive [inhibitor, single point]"

# Source: PubChem BioAssay AID624417 (National Center for Advancing Translational Sciences (NCATS), 2012)
